Laboratory results taken from the antibiotic and cytotoxicity screens of Wong et al. (2023).
The other results are listed elsewhere or left out.

tested on: HSkMC (human skeletal muscle cells); assay: cytotoxicity call (relative viability < 0.9); details: 10 µM

SMILES	cytotoxicity call
C[C@@H]1CN([C@H](C)CO)C(=O)c2cc(NC(=O)Cc3ccccc3)ccc2O[C@@H](C)CCCCO[C@@H]1CN(C)Cc1ccncc1	inactive
CCNC(=O)C[C@H]1CC[C@@H](NC(=O)C2CCOCC2)[C@H](CO)O1	inactive
C=C(C)CC1(N[C@H](C)c2ccccc2)CCCCC1	inactive
C[C@@H]1CN([C@@H](C)CO)C(=O)Cc2cc(NC(=O)Nc3ccc4c(c3)OCO4)ccc2O[C@H]1CN(C)Cc1ccc(C(=O)Nc2ccccc2N)cc1	inactive
CN(C)C(=O)c1ccc(-c2cccc(-c3nc(C(=O)NC4CCCCC4)cc4c3[C@H](CCO)N([S@@](=O)C(C)(C)C)C4)c2)cc1	inactive
C[C@@H]1CN([C@@H](C)CO)C(=O)Cc2cc(NS(=O)(=O)c3ccc(F)cc3)ccc2O[C@@H]1CN(C)Cc1ccc(Cl)c(Cl)c1	active
NNC(=O)[C@@H]1C(c2ccccc2)[C@H]1C(=O)NN (stereo partly drawn)	inactive
C/C=C/c1ccc2c(c1)O[C@H](CN(C)S(=O)(=O)c1ccccc1OC)[C@H](C)CN([C@@H](C)CO)S2(=O)=O	inactive

tested on: HepG2; assay: cytotoxicity call (relative viability < 0.9); details: 10 µM

SMILES	cytotoxicity call
COc1ccccc1-c1ccc2c(c1)O[C@@H](CN(C)C(=O)c1ccncc1)[C@@H](C)CN([C@H](C)CO)S2(=O)=O	inactive
C[C@H]1CN([C@@H](C)CO)C(=O)c2cccc(NC(=O)c3nc4ccccc4s3)c2O[C@@H]1CN(C)Cc1ccc(Cl)c(Cl)c1	inactive
C[C@@H]1CN([C@H](C)CO)C(=O)c2cc(NS(=O)(=O)c3ccc(Cl)cc3)ccc2O[C@H]1CN(C)Cc1ccc(Cl)c(Cl)c1	inactive
COCCc1nnc(CCOC)n1N	inactive
CNC[C@H]1Oc2ccc(NC(=O)CCN3CCOCC3)cc2CC(=O)N([C@@H](C)CO)C[C@@H]1C	inactive
C[C@H](CO)N1C[C@H](C)[C@@H](CN(C)C(=O)Nc2ccc(C(F)(F)F)cc2)Oc2c(NC(=O)Nc3ccccc3)cccc2C1=O	inactive
C[C@H](CO)N1C[C@H](C)[C@H](CN(C)C(=O)Nc2ccccc2C(F)(F)F)OCc2ccccc2-c2ccccc2C1=O	inactive
C[C@@]1(C(=O)O)CCCC[C@@H]1N	inactive
C[C@@H]1CN([C@@H](C)CO)C(=O)c2cc(Br)cnc2O[C@H]1CN(C)C(=O)Nc1ccc2c(c1)OCO2	inactive
COc1ccccc1C#Cc1ccc2c(c1)O[C@@H](CN(C)Cc1cccnc1)[C@H](C)CN([C@@H](C)CO)S2(=O)=O	inactive
C/C=C/c1ccc2c(c1)O[C@H](CN(C)S(=O)(=O)c1ccccc1OC)[C@H](C)CN([C@H](C)CO)S2(=O)=O	inactive
C=CC(=O)NCCCCNC(=O)C=C	inactive
C[C@@](N)(C(=O)O)c1ccc(-c2nn[nH]n2)cc1	inactive
COc1ccc(S(=O)(=O)N(C)C[C@H]2Oc3cc(C#CC4CC4)ccc3S(=O)(=O)N([C@@H](C)CO)C[C@H]2C)cc1	inactive
C[C@@H]1CCCCO[C@H](CN(C)Cc2ccc(Cl)c(Cl)c2)[C@H](C)CN([C@@H](C)CO)C(=O)c2cc(NC(=O)Nc3ccc(C(F)(F)F)cc3)ccc2O1	active
O=c1cc(Oc2ccc(O)cc2)oc2cc(O[C@@H]3O[C@H](CO[C@@H]4O[C@H](CO)[C@@H](O)[C@H](O)[C@H]4O)[C@@H](O)[C@H](O)[C@H]3O)cc(O)c12	inactive
Cc1[nH]c(N)nc(=O)c1CC(=O)O	inactive
C[C@H](CO)N1C[C@H](C)[C@@H](CN(C)S(=O)(=O)c2ccc(F)cc2)OCCCC[C@H](C)Oc2ccc(NC(=O)c3ccccc3)cc2C1=O	inactive
C[C@H]1CN([C@@H](C)CO)C(=O)Cc2cc(NS(=O)(=O)c3cn(C)cn3)ccc2O[C@H]1CN(C)S(=O)(=O)c1cccs1	inactive
COCCNC(=O)C[C@H]1CC[C@@H]2[C@H](COC[C@@H](O)CN2C(=O)Nc2ccc3c(c2)OCO3)O1	inactive

SMILES	cytotoxicity call
COc1ccc(-c2cnc3c(c2)C(=O)N([C@H](C)CO)C[C@@H](C)[C@H](CN(C)C(=O)Cc2ccncc2)O3)cc1	inactive
CC(O)(CN)CCc1ccccc1 (stereo not drawn)	inactive
C[C@@H]1CN([C@H](C)CO)C(=O)c2cc(NC(=O)Nc3ccc(C(F)(F)F)cc3)ccc2O[C@@H]1CN(C)Cc1ccc(Oc2ccccc2)cc1	active
CCc1nc2c(C)cc(N3CCN(CC(=O)N4CC(O)C4)CC3)cn2c1N(C)c1nc(-c2ccc(F)cc2)c(C#N)s1	active
CC(=O)N1CCN(C(=O)Cc2ccc(S(C)(=O)=O)cc2)C[C@@H](O)C1	inactive
O=C(C[C@H]1C=C[C@H](NC(=O)CN2CCOCC2)[C@H](CO)O1)NCCc1ccncc1	inactive
Cc1ccc(S(=O)(=O)N(C)C[C@@H]2Oc3ccc(NS(=O)(=O)c4cn(C)cn4)cc3CC(=O)N([C@H](C)CO)C[C@@H]2C)cc1	inactive
C[C@H]1CCCCO[C@H](CN(C)S(=O)(=O)c2ccc(Cl)cc2)[C@@H](C)CN([C@@H](C)CO)C(=O)c2cc(NC(=O)Nc3cccc4ccccc34)ccc2O1	inactive
COCCOC(=O)N1C(=O)[C@@]2(c3cc(C#Cc4ccc(OC)cc4)ccc31)[C@H](c1ccc(O)cc1)N1[C@H](c3ccccc3)[C@H](c3ccccc3)OC(=O)[C@H]1[C@@H]2C(=O)N1CCCCCCC1	active
O=c1c(-c2ccc(O)cc2)coc2c(C3OC(CO)C(O)C(O)C3O)c(O)ccc12 (stereo not drawn)	inactive
O=C(C[C@H]1C[C@H]2c3cc(NS(=O)(=O)c4ccc(F)cc4)ccc3O[C@H]2[C@H](CO)O1)N1CCOCC1	inactive
Cc1ccc(S(=O)(=O)N(C)C[C@@H]2OCCCC[C@@H](C)Oc3ccc(NC(=O)Nc4c(C)noc4C)cc3C(=O)N([C@H](C)CO)C[C@H]2C)cc1	inactive
C[C@@H]1CN([C@H](C)CO)C(=O)c2cc(NC(=O)Cc3ccccc3)ccc2O[C@@H](C)CCCCO[C@@H]1CN(C)Cc1ccncc1	inactive
CCNC(=O)C[C@H]1CC[C@@H](NC(=O)C2CCOCC2)[C@H](CO)O1	inactive
C=C(C)CC1(N[C@H](C)c2ccccc2)CCCCC1	inactive
C[C@@H]1CN([C@@H](C)CO)C(=O)Cc2cc(NC(=O)Nc3ccc4c(c3)OCO4)ccc2O[C@H]1CN(C)Cc1ccc(C(=O)Nc2ccccc2N)cc1	inactive
CN(C)C(=O)c1ccc(-c2cccc(-c3nc(C(=O)NC4CCCCC4)cc4c3[C@H](CCO)N([S@@](=O)C(C)(C)C)C4)c2)cc1	inactive
C[C@@H]1CN([C@@H](C)CO)C(=O)Cc2cc(NS(=O)(=O)c3ccc(F)cc3)ccc2O[C@@H]1CN(C)Cc1ccc(Cl)c(Cl)c1	active
NNC(=O)[C@@H]1C(c2ccccc2)[C@H]1C(=O)NN (stereo partly drawn)	inactive
C/C=C/c1ccc2c(c1)O[C@H](CN(C)S(=O)(=O)c1ccccc1OC)[C@H](C)CN([C@@H](C)CO)S2(=O)=O	inactive
